Experimental data from PubChem BioAssay AID686978 (National Center for Advancing Translational Sciences (NCATS), 2013).
“And” between values parts separate entries of the source, which are not always exact repeats. Identical values can stand only once. The campaign covered roughly 420,000 compounds. About 64,000 (15%) were called active. The inconclusive results got no clear call from the source; some entries with a clear call stand among them for comparison. The call rests on the fitted dose curve; in most records, active means well fitted inhibition curve with a large enough effect; inconclusive means small, poorly fitted or top-dose-only effect; inactive means flat fitted curve, though single readings scatter. Where the call is inconclusive, the potency comes from a doubtful curve fit.

assay: qHTS for Inhibitors of human tyrosyl-DNA phosphodiesterase 1 (TDP1): qHTS in cells in absence of CPT; conditions: DT40 Tdp1-/- hTDP1 cells, no CPT, ATP luminescence, 48 h; activity change, negative = growth inhibition: at 46.2 µM (top of the series) unless noted; further: nearly all actives have a fitted effect of over 55% in size
Summary of the method: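 Camptothecin absent (DMSO only). Human TDP1-complemented DT40 knockout cells, 400 cells/well, 37 °C for minimum 48 hr; ATP measured via CellTiter-Glo, 30 min dark incubation, luminescence.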
On the % scale 0 is the no-effect control and ±100 the full control effect; potency means the concentration at half of the fitted maximal effect; tags describe the fitted curve by direction and shape.

Row | SMILES | Potency | activity change, negative = growth inhibition
1 | CC[C@@]12C(=O)N(c3cccc(Cl)c3)C(=O)N1[C@H](c1ccc(Br)cc1)[C@@H]1C(=O)N(C(C)(C)C)C(=O)[C@@H]12 | active: 16.4 µM | –
2 | CC1=C(C(=O)OC2CCCC2)C(c2c(Cl)cccc2Cl)CC(=O)N1 (configuration not stated) | active: 25.9 µM | –
3 | Nc1c(C(=O)O)sc2nc(-c3ccc(F)cc3)cc(-c3ccccc3)c12 | inconclusive: 13 µM [inhibitor, partial curve, poor fit] | –
4 | Cc1ccc(O)c(C2=Nc3ccccc3C2(C)C)c1 | inconclusive: 18.4 µM [inhibitor, single point] | –
5 | CCOc1ccc(NC(=O)N2CCC(n3c(=O)[nH]c4ccccc43)CC2)cc1 | inconclusive: 23.1 µM [inhibitor, single point] | –
6 | Cc1ccc(N2C(=O)c3n[nH]c(C)c3C2c2ccc(Cl)cc2)cc1 (configuration not stated) | inconclusive: 29.1 µM [inhibitor, single point] | –
7 | O=C1Nc2ccc(Br)cc2C12OCCO2 | – | inactive: 6.82%
8 | CC(=O)OCCn1c2nc(=O)[nH]c(=O)c-2nc2cc(C)c(C)cc21 | inconclusive: 29.1 µM [inhibitor, single point] | –
9 | CN(Cc1ccccc1)C(=O)c1csc([C@H]2C[C@H](O)[C@@H](CO)O2)n1 | – | inactive: -0.562%
10 | N=C1N=C(N)c2cc3ccccc3cc21 | active: 24.3 µM | –
11 | CCCc1nnc(NC(=O)c2ccc(S(=O)(=O)N(C)c3ccccc3OC)cc2)s1 | inconclusive: 20.6 µM [inhibitor, single point] | –
12 | Nc1cc(OC(=O)c2cccs2)nn1S(=O)(=O)c1ccccc1 | – | inactive: -10.2%
13 | CN(C)S(=O)(=O)c1ccc(C(=O)Nc2cccc(C(=O)O)c2)cc1 | inconclusive: 0.0164 µM [inhibitor, full curve, poor fit] | –
14 | c1ccc(C(c2ccccc2)N2CC[C@@]3(CCCNC3)C2)cc1 | active: 25.9 µM | –
15 | Cc1ccc(C)c(-c2nnc(NC(=O)Cc3ccc(F)cc3)o2)c1 | active: 10.3 µM | –
16 | Cc1ccsc1C=Nc1ccc(O)cc1 | inconclusive: 20.6 µM [inhibitor, single point] | –
17 | Cc1ccn2c(NCc3ccccc3)c(-c3cccc(SC4CCCCC4)c3)nc2c1 | inconclusive: 18.4 µM [inhibitor, single point] and inconclusive: 29.1 µM [inhibitor, single point] | –
18 | CC(C)S(=O)(=O)C/C(N)=N/OC(=O)c1cc(Cl)cc(Cl)c1 | – | inactive: -7.37%
19 | CCc1ccc(-n2c(=O)c3c4c(sc3n(Cc3cc(=O)n5c(C)cccc5n3)c2=O)CCC4)cc1 | active: 11.6 µM | –
20 | O=C(CN1CCN(c2ccccc2F)CC1)NC(=O)NC1CCCCC1 | inconclusive: 16.4 µM [inhibitor, single point] | –
21 | Cc1ccccc1CSc1nnc2[nH]c(=O)cc(-c3ccccc3)n12 | – | inactive: -2.58%
22 | CCn1c(-c2cc(-c3cc(C)ccc3C)nc3ccccc23)n[nH]c1=S | inconclusive: 29.1 µM [inhibitor, single point] | –
23 | CN(C)S(=O)(=O)Oc1ccc(Cl)cc1C(=O)Nc1cccc(C(F)(F)F)c1 | inconclusive: 23.1 µM [inhibitor, single point] | –
24 | Cc1cc(C)cc(NC(=O)CSc2oc(-c3ccccc3)nc2S(=O)(=O)c2ccc(Cl)cc2)c1 | inconclusive: 6.51 µM [inhibitor, single point] | –

Row | SMILES | Potency | activity change, negative = growth inhibition
25 | CCOc1ccc(C2=CS/C(=C(\C#N)c3nnc4n3CCCCC4)N2CC)cc1 | active: 23.1 µM | –
26 | COc1cc(CN2C(=O)C(Cc3ccccc3)ON=C2c2ncccc2C)cc(OC)c1 (configuration not stated) | inconclusive: 29.1 µM [inhibitor, single point] | –
27 | CN(Cc1ccccn1)C(=O)c1cc(COc2ccc(F)c(F)c2)on1 | inconclusive: 29.1 µM [inhibitor, single point] | –
28 | CCOc1ccc(NC(=O)c2nc(S(=O)(=O)Cc3ccccc3C)ncc2Cl)cc1 | active: 0.708 µM | –
29 | N#Cc1cccc(-c2nc3cnc(N4CCNCC4)nc3n(C3CC3)c2=O)c1 | active: 3.66 µM | –
30 | CN(C)CCC(O)(c1ccccc1)c1ccccc1Cl (configuration not stated) | inactive | –
31 | CS(=O)(=O)Cc1nc2ccccc2n1CC(=O)Nc1cccc(S(=O)(=O)N2CCCC2)c1 | – | inactive: -13.3%
32 | O=S(=O)(NC1CCCCC1N1CCN(c2ccc(F)cc2)CC1)c1ccccc1 (configuration not stated) | inconclusive: 18.4 µM [inhibitor, single point] | –
33 | CC(C)OCCCNC(=O)C(=O)Nc1c2c(nn1-c1ccccc1)CS(=O)(=O)C2 | – | inactive: -16.2%
34 | CCc1ccccc1NS(=O)(=O)c1ccc2nc(-c3ccccc3)[nH]c2c1 | active: 9.2 µM | –
35 | CCOC(=O)c1sc(NC(=O)/C=C/c2ccc(F)cc2)nc1C | inconclusive: 29.1 µM [inhibitor, single point] | –
36 | CC(C(=O)NCc1ccccc1)N(Cc1ccccc1Cl)C(=O)c1snc(C(N)=O)c1N (configuration not stated) | – | inactive: -16.8%
37 | O=C1Nc2ccccc2-n2nnnc2C1N1CCN(c2ccc(C(F)(F)F)cc2[N+](=O)[O-])CC1 (configuration not stated) | active: 16.4 µM | –
38 | COc1cccc(/C(=N/O)C2CC2c2ccc(Cl)cc2)c1 (configuration not stated) | – | inactive: -17.3%
39 | CCN(CC(=O)Nc1cc(Cl)ccc1C)C(=O)c1ccc2c(c1)NC(=O)C(C)S2 (configuration not stated) | inconclusive: 20.6 µM [inhibitor, single point] | –
40 | CN(c1ccccc1)S(=O)(=O)c1cc(C(=O)NCc2ccco2)ccc1Cl | inconclusive: 18.4 µM [inhibitor, single point] | –
41 | CCN1CCCC1CNC(=O)c1cnn(-c2nccc(-c3cc4ccccc4o3)n2)c1C1CC1 (configuration not stated) | active: 4.11 µM | –
42 | COc1ccc2c(c1)C=C(CN1CCN(Cc3ccccc3C)C(CCO)C1)CO2 (configuration not stated) | inconclusive: 13 µM [inhibitor, single point] | –
43 | Cc1ccc2c(c1)N(CC(=O)NCCc1ccccc1)C(=O)CO2 | – | inactive: -2.87%
44 | Cc1cc(=O)oc2cc(OCc3ccc(C(=O)OCC(=O)NC4CCS(=O)(=O)C4)cc3)ccc12 (configuration not stated) | – | inconclusive: -30.6% [inhibitor]
45 | CCCCC1(C)Nc2ccccc2-c2nc3ccccc3n21 (configuration not stated) | inconclusive: 25.9 µM [inhibitor, single point] | –
46 | COCCn1nnnc1C(C(C)C)N1CCSCC1 (configuration not stated) | – | inactive: 13.3%
47 | NC(=S)NNC(=O)/C(=C/c1ccc(Br)cc1)NC(=O)c1ccccc1 | – | inactive: -19.4%
48 | CCCc1nn2c(=O)cc(COc3ccc(/C=C(\C#N)C(=O)Nc4ccc(F)cc4)cc3)nc2s1 | inconclusive: 29.1 µM [inhibitor, single point] | –

Row | SMILES | Potency | activity change, negative = growth inhibition
49 | Cn1c(=O)[nH]c(=O)c2c1nc(N1CCN(Cc3ccccc3)CC1)n2CCCc1ccccc1 | active: 16.4 µM | –
50 | CCOc1ccc(CN(C)C(=O)[C@H](Cc2ccccc2)NC(=O)OCc2ccccc2)cc1OC | active: 20.6 µM | –
51 | CCN(CC)C(=O)Cn1c(SCCOc2ccc(Cl)cc2)nc2ccccc21 | active: 20.6 µM | –
52 | Cc1ccnc(NC(=O)CCC(=O)c2cccs2)c1 | – | inactive: -49.6%
53 | Cc1nc(C/C(=N\N)c2ccc(O)cc2O)cs1 | – | inactive: -9.65%
54 | COc1ccc(C(O)c2nc(-c3cnc4ccccc4c3)cs2)cc1 (configuration not stated) | active: 14.6 µM | –
55 | CCCN1C2CCCC1CC(NC(=S)Nc1cccc(C)c1C)C2 (configuration not stated) | inconclusive: 8.2 µM [inhibitor, partial curve] | –
56 | Cc1ccc(C)c(OCCn2cc(/C=C(/C#N)C(=O)NCC3CCCO3)c3ccccc32)c1 (configuration not stated) | inconclusive: 29.1 µM [inhibitor, single point] | –
57 | C=CCSC1=N/C(=C\c2cc(OC)c3c(c2)OCO3)C(=O)S1 | – | inactive: -3.33%
58 | CCOCCCN1CN(S(=O)(=O)c2ccc(Cl)cc2)c2nc3ccccc3nc21 | inconclusive: 29.1 µM [inhibitor, single point] | –
59 | Cc1ccc(CNS(=O)(=O)c2ccc(Cl)s2)cc1 | inconclusive: 29.1 µM [inhibitor, single point] | –
60 | Cc1cc(C)c2nc(N3CCC(C(=O)NCCCN4CCCC4=O)CC3)sc2c1 | inconclusive: 29.1 µM [inhibitor, single point] | –
61 | Cc1cc(=O)[nH]c(SCC(=O)c2ccc(C)c(C)c2)n1 | inconclusive: 4.11 µM [inhibitor, full curve, poor fit] | –
62 | O=C(Nc1ccccc1)c1ccccc1NC(=O)c1ccccc1[N+](=O)[O-] | inconclusive: 29.1 µM [inhibitor, single point] | –
63 | COc1ccc(C2SCC(=O)N2Cc2ccccc2)cc1 (configuration not stated) | inconclusive: 29.1 µM [inhibitor, single point] | –
64 | O=c1[nH]c(SCc2ccccc2Cl)nc2c1cnn2-c1ccccc1 | inconclusive: 18.4 µM [inhibitor, single point] | –
65 | Cc1ccc(C2CC(c3cccs3)=NN2C(=O)CSC2=NN3CCCC(=O)N=C3S2)cc1 (configuration not stated) | inconclusive: 29.1 µM [inhibitor, single point] | –
66 | Cc1ccc(C(=O)CC(=O)COc2ccc(Cl)cc2C)cc1 | active: 5.8 µM | –
67 | Cc1ccc(S(=O)(=O)Nc2nc(C)cc(N/N=C/c3ccc(O)cc3)n2)cc1 | inconclusive: 23.1 µM [inhibitor, single point] | –
68 | O=C(NCCCN1CCCC1=O)c1cc(-c2ccc3c(c2)OCO3)nc2ccccc12 | inconclusive: 18.4 µM [inhibitor, single point] | –
69 | O=C(NC(=S)Nc1ccc(S(=O)(=O)N2CCCCC2)cc1)c1ccc(Cl)cc1 | active: 10.3 µM | –
70 | CC/C(=N\NC(=O)C(N)=O)c1ccccc1O | inconclusive: 29.1 µM [inhibitor, single point] | –
71 | NCCN1CCN(S(=O)(=O)c2ccc([N+](=O)[O-])cc2)C=C1c1ccc(Cl)cc1 | inconclusive: 29.1 µM [inhibitor, single point] | –
72 | COc1ccc(-c2nc3cnc(Nc4cccc(OC)c4)nc3n(CCC#N)c2=O)cc1 | – | inactive: -20.6%
